According to PubChem BioAssay AID686978 (National Center for Advancing Translational Sciences (NCATS), 2013):
The campaign covered roughly 420,000 compounds. About 64,000 (15%) were called active. Inconclusive results, whose numbers are uncertain, are shown with a selection of clear calls. Calls follow the shape of the dose curve; as a rule, active = well fitted inhibition curve with a large enough effect; inconclusive = small, poorly fitted or top-dose-only effect; inactive = flat fitted curve, though single readings scatter. No potency is given beside an inconclusive call; the fits are too rough.
% is scaled to controls: 0 for no effect and ±100 for the full control effect; potency is read from the fitted curve at half-maximal effect; tags tell the direction and shape of the fitted curve.

Assay: qHTS for Inhibitors of human tyrosyl-DNA phosphodiesterase 1 (TDP1): qHTS in cells in absence of CPT; also: nearly all actives have a fitted effect of over 55% in size
Conditions: DT40 Tdp1-/- hTDP1 cells, no CPT, ATP luminescence, 48 h; activity change, negative = growth inhibition: at 46.2 µM (top of the series)
Outline: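 Growth kinetics read by CellTiter-Glo luminescence after ≥48 hr at 37 °C. Cells: DT40 Tdp1-/- stably carrying human TDP1, 400 per well, compound exposure in the absence of CPT (DMSO vehicle).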
In the case of `O=C1NC[C@@H](CCCCN2C[C@H](Cc3ccc(O)cc3)N(CCC3CCCCC3)C(=O)C2=O)N(CCc2ccc(O)cc2)C1=O`, the “activity change, negative = growth inhibition” value is reported as inactive: 1.83%.
In the case of `O=C(Nc1nc2ccc(S(=O)(=O)N3CCCC3)cc2s1)c1ccc(F)cc1`, the Potency is reported as inconclusive [inhibitor, partial curve, poor fit].
For `CC(C)CNCC1OCc2ccccc2CO1`, the “activity change, negative = growth inhibition” value was inactive: 10%.
For `CSc1ccc(C#N)cc1NC(=O)c1cccc(Cl)c1`, the activity change, negative = growth inhibition was inconclusive: -37.2% [inhibitor].
With `O=C(C(Cl)Cl)N1CC2CCC(CC2)C1` the “activity change, negative = growth inhibition” value was inactive: -17.6%.
With `CCOc1ccccc1C(=O)Nc1cc(Cl)ccc1O` the Potency was inconclusive [inhibitor, single point].
For `COc1ccc(OC)c(C2=Nn3c(nnc3-c3cc(OC)c(OC)c(OC)c3)SC2)c1`, the Potency was active: 16.4 µM.
With `COc1ccc2[nH]c(=O)c(CN(Cc3ccco3)Cc3nnnn3Cc3ccccc3)cc2c1` the Potency was active: 16.4 µM.
For `O=C(NNC(=S)NC(=O)c1cccnc1)c1ccccc1`, the Potency was active: 23.1 µM.
For `S=C(NCc1ccco1)Nc1cc(-c2ccccc2)[nH]n1`, the Potency was inconclusive [inhibitor, single point].
For `COc1cc(NC(=O)CCNS(=O)(=O)c2cc(Br)cnc2N)cc(OC)c1`, the “activity change, negative = growth inhibition” value was inactive: 1.88%.
For `Nc1cc(=O)[nH]c(SCC(=O)NNC(=O)c2ccccc2)n1`, the “activity change, negative = growth inhibition” value was inactive: -7.3%.
For `COc1ccc(N/C=C/C(=O)c2sc(-c3ccccc3)nc2C)cc1`, the Potency was active: 20.6 µM.
With `CC(=O)c1c(C)[nH]c(C(=O)CSc2nc3ccccc3c(=O)n2CCCO)c1C` the Potency was inconclusive [inhibitor, partial curve].
With `COCCNC(=O)c1ccc(C2SCC(=O)N2CCc2ccccc2)cc1` (centres undefined) the “activity change, negative = growth inhibition” value was inactive: -1.55%.
For `O=Cc1ccc(-c2ccc([N+](=O)[O-])cc2Cl)o1`, the Potency was inconclusive [inhibitor, single point].
For `CN(C)CC(C)(C)CNC(=O)C1CCN(CCCc2ccccc2)CC1`, the Potency was inconclusive [inhibitor, single point].
In the case of `O=C(Nc1cc(C(F)(F)F)ccc1N1CCCCC1)c1ccc(Br)o1`, the Potency is reported as inconclusive [inhibitor, single point].
With `CCC(C)Nc1nc(SC(C(C)=O)C(C)=O)nc(N(C)C)n1` (centres undefined) the Potency was inconclusive [inhibitor, single point].
With `Cc1ccc(-c2nc(CN(C)Cc3cccc4cnccc34)c(C)o2)s1` the Potency was active: 20.6 µM.
For `O=c1oc2ccccc2c(N2CCOCC2)c1[N+](=O)[O-]`, the Potency was inconclusive [inhibitor, single point].
For `CCn1cc(C(=O)N[C@H](C)c2ccccc2)c(=O)c2cc(F)c(N3CCN(C)CC3)cc21`, the Potency was inconclusive [inhibitor, single point].
With `O=C(O)c1ccc(CN(Cc2ccccc2)S(=O)(=O)c2ccc(Cl)cc2)cc1` the Potency was inconclusive [inhibitor, single point].
In the case of `CCOC(=O)C1CCCN(S(=O)(=O)c2cc(Br)cc3c2N(C(=O)C2CC2)CC3)C1` (centres undefined), the Potency is reported as inconclusive [inhibitor, single point].
With `COCCCNC(=O)c1ccc(Cn2c(=O)c3ccccc3n(CC(=O)Nc3ccc(C)cc3C)c2=O)cc1` the “activity change, negative = growth inhibition” value was inactive: -2.08%.
For `CN(Cc1ccccc1)C(=O)c1ccc(NC(=O)Cc2ccc(NC(=O)C3CCCN(C(=O)C4CCC4)C3)cc2)cc1` (centres undefined), the Potency was inconclusive [inhibitor, single point].
With `Cc1ccc(CN2CCN(/N=C\c3cccc([N+](=O)[O-])c3)CC2)cc1` the Potency was inconclusive [inhibitor, single point].
In the case of `CCCCNC(=O)C(NC(=O)Cc1cc(C(F)(F)F)cc(C(F)(F)F)c1)C(=O)c1ccccc1` (centres undefined), the Potency is reported as inconclusive [inhibitor, single point].
For `COC(=O)C1=CN(Cc2cccs2)C=C(C(=O)OC)C1c1ccc(OC)cc1OC`, the Potency was inconclusive [inhibitor, single point].
For `COc1cccc(OC2(C)CCN(Cc3cccn3-c3nccs3)C2)c1` (centres undefined), the Potency was active: 20.6 µM.
In the case of `Cn1cc(SCC(=O)NC2CCCCC2)c2ccccc21`, the “activity change, negative = growth inhibition” value is reported as inactive: 2.16%.
In the case of `COc1ccc(-c2nnc(SCC(=O)c3cccs3)o2)c(OC)c1`, the Potency is reported as inconclusive [inhibitor, single point].
With `CCCCSc1nc2c(c(=O)[nH]c(=O)n2C)n1CCc1ccccc1` the Potency was inconclusive [inhibitor, single point].
With `COc1ccc(-c2nc3nc(C)cc(N4CCN(c5cccc(C(F)(F)F)c5)CC4)n3n2)cc1` the Potency was inconclusive [inhibitor, single point].
With `COc1ccc(CCNC(=O)c2cc3c(s2)-c2c(C)cccc2OC3)c(OC)c1` the Potency was inconclusive [inhibitor, single point].
For `CCC(C)(C(=O)NC1CCCC1)N(Cc1ccco1)C(=O)Cc1cccs1` (centres undefined), the Potency was inconclusive [inhibitor, partial curve].
With `Cn1c(=O)n(C)c2cc(CNc3ccc(N4CCOCC4)c(C(=O)O)c3)ccc21` the Potency was inconclusive [inhibitor, partial curve].
For `O=C(CNC(=O)c1ccccc1Cl)NCC(c1cccs1)N1CCOCC1` (centres undefined), the “activity change, negative = growth inhibition” value was inactive: -1.9%.
For `Cc1cc(C)cc(NC(=O)Cn2nnc(C(=O)NCc3ccccc3Cl)c2N)c1`, the Potency was inconclusive [inhibitor, single point].
With `Cc1ccc2cc(CCNC(=O)c3cccs3)c(=O)[nH]c2c1` the activity change, negative = growth inhibition was inconclusive: -33.1% [inhibitor].
In the case of `COc1ccc(N2CCN(c3nc4ccccn4c(=O)c3/C=C(\C#N)S(=O)(=O)c3ccccc3)CC2)cc1`, the “activity change, negative = growth inhibition” value is reported as inactive: 1.53%.
For `CC(C)c1cc(C(=O)NC(C)c2ccccc2)no1` (centres undefined), the “activity change, negative = growth inhibition” value was inactive: -5.67%.
For `CN(C)CCCNc1oc(/C=C/c2cccs2)nc1S(=O)(=O)c1ccccc1`, the Potency was inconclusive [inhibitor, single point].
For `CCOc1ccc(-c2cc(CCCC(=O)NCc3ccc(C)cc3)no2)cc1`, the “activity change, negative = growth inhibition” value was inactive: -24.2%.
In the case of `CCN(CC)CCNC(=O)c1ccc(Sc2ccc(Cl)cc2)c(NC(C)=O)c1`, the Potency is reported as inconclusive [inhibitor, single point].
For `CC(C)C(NC(=O)C1CCCCC1)C(=O)N1CCN(c2ccc(F)cc2)CC1` (centres undefined), the Potency was active: 16.4 µM.
With `COc1ccc2nc(NC(=O)CSC(C)C(=O)Nc3cc(C)on3)sc2c1` (centres undefined) the “activity change, negative = growth inhibition” value was inactive: -28.1%.
With `O=C(NCc1cccnc1)c1ccc(CS(=O)(=O)c2ccc(Br)cc2)o1` the Potency was active: 14.6 µM.
With `C/C(=N/NS(=O)(=O)c1ccc(C)cc1C)c1c[nH]c2ccccc12` the Potency was inconclusive [inhibitor, partial curve].
For `COc1ccccc1NS(=O)(=O)c1cc(NC(=O)CC(C)(C)C)ccc1N1CCOCC1`, the Potency was inconclusive [inhibitor, partial curve].
With `CC(C)c1ccc(N2CCN(C(=O)c3ccccc3NC(=O)/C=C\C(=O)O)CC2)cc1` the Potency was inconclusive [inhibitor, partial curve].
For `OCCN1CCN(CC(O)COC(c2ccc(F)cc2)c2ccc(F)cc2)CC1` (centres undefined), the “activity change, negative = growth inhibition” value was inactive: -21.1%.
With `Cc1cccc(N2CC(c3nc4ccccc4n3CCC3CCCCC3)CC2=O)c1` (centres undefined) the Potency was active: 18.4 µM.
In the case of `CCCCCCN(CCCCCC)c1ccc(/C=C/c2ccnc3ccccc23)cc1`, the Potency is reported as inconclusive [inhibitor, single point].
With `COc1ccc(C2/C=C\CC(NS(=O)(=O)c3ccc(C)cc3)CC(=O)N2Cc2ccccc2F)cc1` (centres undefined) the Potency was inconclusive [inhibitor, single point].
With `CCOC(=O)c1c(-c2ccc(OC)cc2)csc1NC(=O)CNCc1ccco1` the Potency was inconclusive [inhibitor, single point].
With `CC(=O)NC(=S)Nc1cccc([N+](=O)[O-])c1` the “activity change, negative = growth inhibition” value was inactive: -21%.
In the case of `C/C(=N\NC(=O)c1ccncc1)C12CC3CC(CC(C3)C1)C2`, the Potency is reported as inconclusive [inhibitor, single point].
In the case of `CCOC(=O)N1CCN(C(=O)Nc2sc3nc4n(c(=O)c3c2C)CCC(C)CC4)CC1` (centres undefined), the Potency is reported as inconclusive [inhibitor, single point].
With `COc1ccc(-c2cnc3c(NC=O)cc(-c4ccc(F)cc4)cn23)cc1OC` the Potency was active: 0.013 µM.
In the case of `Cc1occc1-c1nc(-c2ccncc2)no1`, the “activity change, negative = growth inhibition” value is reported as inactive: 4.33%.
With `Cc1c(NC(=O)c2cc(-n3cnnc3)ccc2Cl)cccc1-c1nc2ccccc2o1` the Potency was inconclusive [inhibitor, single point].
With `O=C(c1ccccc1)N1N=C(C(F)(F)F)CC1(O)c1ccc(F)cc1` (centres undefined) the Potency was inconclusive [inhibitor, single point].
With `CC(C)Sc1cc(N2CCCC2)nc(-c2ccc(F)cc2)n1` the Potency was inconclusive [inhibitor, single point].
With `NC(=O)COC(=O)c1cccc2c1-c1ccccc1C2=O` the Potency was inconclusive [inhibitor, single point].
With `COc1cc(OC)c2c(-c3ccccc3)cc(=O)oc2c1C(CCN1CCN(c2ccccc2)CC1)c1ccc(N(C)C)cc1` (centres undefined) the Potency was active: 23.1 µM.
In the case of `CC(C)CNS(=O)(=O)c1ccc(CCC(=O)N2CCN(c3ccccc3)CC2)cc1`, the Potency is reported as inconclusive [inhibitor, partial curve, poor fit].
For `C(=C\c1ccccc1)/CN1CCN(C(CCc2ccccc2)c2nnnn2C2CCCCC2)CC1` (centres undefined), the Potency was inconclusive [inhibitor, single point].
In the case of `CCCCCSc1nnc2c(n1)OC(CC)Nc1ccc(Br)cc1-2` (centres undefined), the Potency is reported as inconclusive [inhibitor, single point].
